Measurements published in the BET-seq Pho4 binding data (Le et al. 2018).
This is one part of the list. Values were computed here from the reads of four pooled replicates and scatter widely.

target: T1, Pho4 (S. cerevisiae) (UniProt P07270); test: relative binding free energy (BET-seq); higher = weaker binding; settings: reference: library average
T1 sequence: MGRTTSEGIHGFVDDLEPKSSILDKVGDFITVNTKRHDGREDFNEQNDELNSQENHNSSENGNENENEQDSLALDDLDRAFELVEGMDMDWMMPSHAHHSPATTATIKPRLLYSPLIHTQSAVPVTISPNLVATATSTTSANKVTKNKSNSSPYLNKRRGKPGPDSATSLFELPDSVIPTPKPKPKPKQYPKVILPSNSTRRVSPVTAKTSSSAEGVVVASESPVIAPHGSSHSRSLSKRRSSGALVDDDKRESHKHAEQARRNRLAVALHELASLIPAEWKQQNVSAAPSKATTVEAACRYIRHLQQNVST

Sequence	relative binding free energy [kcal/mol]
TTGTCCACGTGTGTAT	-0.08
CTTAACACGTGGAGTT	0.11
TTGAGCACGTGTATGG	-0.14
AGGGACACGTGGAGTT	0.11
AGGAGCACGTGGTTCG	-0.07
CGAGTCACGTGGTTAG	0
AGCAGCACGTGGGGGA	-0.39
AGAATCACGTGTGTTA	0.21
ATTGTCACGTGCAGTT	0.01
AGGAGCACGTGCTGGT	-0.12
TGGGACACGTGGGGGG	-0.04
GCTAGCACGTGTTGAT	0.02
CGAGGCACGTGTTTTG	-0.09
CGATGCACGTGGTGTG	-0.13
TAAAGCACGTGGGCGT	-0.15
CATGGCACGTGGTGCT	-0.28
TGGGACACGTGGTCTG	-0.19
ATGCACACGTGGTGTG	-0.07
AATTGCACGTGGGAAA	0.02
TTAGGCACGTGGGGCA	-0.31
GTAAGCACGTGATATT	0.18
GGGTTCACGTGTATTG	0.28
TTTATCACGTGTTGCT	0.17
TTTGACACGTGATCGT	0.03
GCTCGCACGTGGGTTG	-0.14

Sequence	relative binding free energy [kcal/mol]
AATCACACGTGGGTTT	0.02
AATGGCACGTGGCGGA	-0.26
AGCATCACGTGTTTGA	0.14
GGTGTCACGTGTGTCT	0.23
GGGAGCACGTGGCGAT	-0.01
TGTTCCACGTGTAGTG	0.06
CATTGCACGTGTAATG	0.15
TTCTCCACGTGGGGGG	-0.15
TGGTACACGTGCTGGG	0.03
TTTATCACGTGAAATT	0.24
ACTTGCACGTGGAGGG	-0.07
TAGGCCACGTGAAAGG	0.22
GTGTTCACGTGAGGAC	0.53
TTGTTCACGTGTGGAC	0.14
TGCTGCACGTGTAGTT	-0.13
TGTAGCACGTGACAGT	0
TTCATCACGTGTTAAG	0.17
AATGCCACGTGGCGGG	-0.29
GGGAACACGTGGGCTA	0.04
AGATGCACGTGTATGA	-0.02
TGATTCACGTGTGGCG	0.3
ATGTGCACGTGGTACT	-0.06
CAGTGCACGTGGGAGT	-0.11
GTAAGCACGTGGCGTA	-0.11
GGGGTCACGTGGAGGT	0.11

Sequence	relative binding free energy [kcal/mol]
GTGTCCACGTGGTGAT	0.04
TTAAGCACGTGTGGCT	-0.2
CTTGGCACGTGGTCGA	-0.31
TGATTCACGTGGGATT	0.07
TTAGTCACGTGACTCG	0.29
GCTGGCACGTGTGGGT	0
TATCGCACGTGGGAAG	-0.08
TGGTTCACGTGGTTGC	0.32
GGGTTCACGTGCACGG	0.31
TGTTACACGTGACAGG	0.12
GGTTCCACGTGGTTGA	0.24
AGGGGCACGTGAAGAG	0.1
TGCCGCACGTGTTTGT	-0.02
TGTTTCACGTGCGTCG	0.27
AGTAGCACGTGAGGTT	0.1
TCGGTCACGTGGGATA	0.07
CTTTACACGTGGTGCG	-0.01
AGCTGCACGTGGGTAT	-0.18
CTGGTCACGTGACTGG	0.34
GGTCGCACGTGGCTTT	-0.03
TGTGGCACGTGTTTGC	-0.07
TTAGGCACGTGTTTGC	-0.04
TCGGGCACGTGGCAAG	-0.08
